{"source": "PubChem BioAssay AID588591", "about": "(National Center for Advancing Translational Sciences (NCATS), 2011)", "note": "Hit rate of the full screen: of about 390,000 compounds, about 4,700 (1.2%) were called active. This list was built around the results that the source calls inconclusive (neither active nor inactive); the mix of calls is not that of the screen. Calls follow the shape of the dose curve; as a rule, active = well fitted inhibition curve with a large enough effect; inconclusive = small, poorly fitted or top-dose-only effect, or another doubt; inactive = no such curve, though single readings can be large or run the other way. A potency beside an inconclusive call is a rough fit, not a confirmed value. Potency is read from the fitted curve at half-maximal effect; tags tell the direction and shape of the fitted curve."}
{"target": "DNA polymerase eta (Homo sapiens) (UniProt Q9Y253)", "sequence (Q9Y253 whole entry, looked up)": "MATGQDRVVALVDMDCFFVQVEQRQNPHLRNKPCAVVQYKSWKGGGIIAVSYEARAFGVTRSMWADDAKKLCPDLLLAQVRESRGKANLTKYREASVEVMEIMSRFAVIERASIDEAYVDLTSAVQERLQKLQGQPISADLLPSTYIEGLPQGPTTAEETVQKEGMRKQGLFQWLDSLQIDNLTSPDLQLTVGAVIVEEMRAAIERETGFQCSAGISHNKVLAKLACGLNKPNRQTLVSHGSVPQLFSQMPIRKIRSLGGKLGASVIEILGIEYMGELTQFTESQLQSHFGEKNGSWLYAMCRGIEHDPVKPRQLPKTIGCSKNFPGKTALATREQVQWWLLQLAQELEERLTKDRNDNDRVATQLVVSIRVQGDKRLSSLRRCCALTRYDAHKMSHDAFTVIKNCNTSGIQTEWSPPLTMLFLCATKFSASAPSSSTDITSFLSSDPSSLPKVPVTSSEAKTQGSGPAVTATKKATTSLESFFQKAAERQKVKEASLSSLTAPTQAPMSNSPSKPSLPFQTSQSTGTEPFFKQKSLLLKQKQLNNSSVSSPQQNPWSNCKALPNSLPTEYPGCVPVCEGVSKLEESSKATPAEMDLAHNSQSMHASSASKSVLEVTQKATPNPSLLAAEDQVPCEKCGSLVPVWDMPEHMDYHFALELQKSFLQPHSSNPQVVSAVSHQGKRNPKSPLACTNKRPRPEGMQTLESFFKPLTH", "assay": "qHTS for Inhibitors of Polymerase Eta", "details": "recombinant Pol eta, fluorescent DNA replication assay; series mostly up to 114 µM", "in_short": "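Pol eta at 10 nM preincubated with compounds 15 min at room temperature; reaction started with fluorescent substrate (50 nM final) and read kinetically at 0 and 10 min.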"}
{"smiles": "CC(=O)N1CCCc2cc(S(=O)(=O)N3CCC(C(=O)NCc4cccc(C)c4)CC3)ccc21", "Potency": "inactive"}
{"smiles": "COc1ccc(OCC(=O)N2CCCC(CO)(CCOc3ccccc3)C2)cc1", "note": "(stereo not drawn)", "Potency": "inconclusive: 50.1 µM [inhibitor, partial curve, poor fit]"}
{"smiles": "COc1cccc(Cn2c(=O)n(Cc3ccco3)c(=O)c3oc4ccccc4c32)c1", "Potency": "inactive"}
{"smiles": "O=c1[nH]c2cc3c(cc2cc1CN(Cc1cccs1)Cc1nnnn1Cc1ccco1)OCCO3", "Potency": "active: 17.8 µM"}
{"smiles": "CCN(CC)c1ccc(NC(=O)CSc2nc(C3CC3)nc3ccccc23)cc1C", "Potency": "inconclusive: 31.6 µM [inhibitor, partial curve, poor fit]"}
{"smiles": "CC(=O)OC(c1nc2ccccc2c(=O)n1C1CC2(OC1=O)c1ccccc1N1C(=O)C(C)(C)N(O)C12)C(C)C", "note": "(stereo not drawn)", "Potency": "inconclusive: 70.8 µM [inhibitor, partial curve]"}
{"smiles": "COc1ccc2c(c1)C(c1ccc(N3CCOCC3)cc1)=NNC(c1cccnc1)=N2", "Potency": "inconclusive: 89.1 µM [inhibitor, partial curve, poor fit]"}
{"smiles": "CCN(CC)S(=O)(=O)c1ccc(/C=C/C(=O)OCC(=O)NCc2ccco2)cc1", "Potency": "active: 15.8 µM"}
{"smiles": "Cc1nc(SCC(=O)Nc2ccccc2Cl)oc1C", "Potency": "inactive"}
{"smiles": "COC(=O)C(C)Sc1ncnc2c1c(-c1ccccc1)cn2-c1ccc(F)cc1", "note": "(stereo not drawn)", "Potency": "inactive"}
{"smiles": "CCCCCc1c2c(cc(O)c1C(=O)O)OC(=O)c1c(cc(OC)cc1C(=O)CCCC)O2", "Potency": "active: 79.4 µM"}
{"smiles": "COc1ccccc1OCCOc1ccc(/C=C2\\C(=N)N3N=C(C)SC3=NC2=O)cc1", "Potency": "inconclusive: 17.8 µM [inhibitor, full curve, poor fit]"}
{"smiles": "O=C(O)c1ccc(N=Cc2c(O)ccc3ccccc23)cc1", "Potency": "inactive"}
{"smiles": "C/C(CC(=O)Nc1cc(Cl)ccc1Cl)=N\\NC(N)=S", "Potency": "inactive"}
{"smiles": "O=C(NCc1ccc(F)cc1)c1ccccc1OCc1ccccc1", "Potency": "inconclusive: 6.31 µM [inhibitor, partial curve, poor fit]"}
{"smiles": "Cc1ccc(-c2nc3ccccc3o2)cc1NC(=S)NC(=O)/C=C/c1ccco1", "Potency": "active: 22.4 µM"}
{"smiles": "CC(C)c1ccc(NC(=O)Cn2c(=O)n(CCc3ccccc3)c(=O)c3ccccc32)cc1", "Potency": "inactive"}
{"smiles": "COc1ccccc1NS(=O)(=O)c1cccc(C(=O)N/N=C(\\C)c2ccc3c(c2)OCCO3)c1", "Potency": "inactive"}
{"smiles": "Cc1ccccc1-c1nc(-c2ccc(NC(=O)c3ccc4c(c3)OCO4)cc2)no1", "Potency": "inconclusive: 28.2 µM [inhibitor, partial curve]"}
{"smiles": "O=C(O)c1cccc2c1C(=O)N(C1CCCCC1)C2", "Potency": "active: 31.6 µM"}
{"smiles": "COc1cccc(NC(=O)CC(=O)c2ccc([N+](=O)[O-])cc2)c1", "Potency": "inconclusive: 35.5 µM [inhibitor, partial curve, poor fit]"}
{"smiles": "Cc1ccc(-n2c(=O)c3cc4c(=O)n(-c5ccc(C)c(C)c5)c(=O)c4c(C(=O)c4ccc(C(=O)O)cc4)c3c2=O)cc1C", "Potency": "inconclusive: 20 µM [inhibitor, single point]"}
{"smiles": "COC(=O)Nc1ccc(S(=O)(=O)N2CCCCC2C(=O)NCc2ccco2)cc1", "note": "(stereo not drawn)", "Potency": "inactive"}
{"smiles": "CCOC(=O)c1c(C)[nH]c(N=Nc2cc(C(=O)O)cc(C(=O)O)c2)c1C", "Potency": "active: 17.8 µM"}
{"smiles": "CCN(c1ccccc1)c1ncnc2c1cnn2-c1ccc(C)cc1C", "Potency": "inactive"}
{"smiles": "CCOC(=O)C1=C(O)c2ccccc2C(=O)/C1=C\\c1ccc(CC)cc1", "Potency": "inconclusive: 89.1 µM [inhibitor, single point]"}
{"smiles": "CCOc1cccc(CNc2ccc(O)cc2)c1OCc1ccc(Cl)cc1Cl", "Potency": "inconclusive: 14.1 µM [inhibitor, full curve, poor fit]"}
{"smiles": "CCc1ccccc1N1C(=O)N(Cc2ccccc2C)c2ccccc2S1(=O)=O", "Potency": "inactive"}
{"smiles": "c1ccc(-c2csc3ncnc(NCC4COc5ccccc5O4)c23)cc1", "note": "(stereo not drawn)", "Potency": "inconclusive: 79.4 µM [inhibitor, partial curve, poor fit]"}
{"smiles": "O=C(N/N=C/c1c[nH]c2ccccc12)c1ccc(O)c(O)c1", "Potency": "inconclusive: 28.2 µM [inhibitor, full curve]"}
{"smiles": "Cn1c(SCC(=O)Nc2cc(Cl)cc(Cl)c2)nnc1-c1ccc2nonc2c1", "Potency": "inconclusive: 56.2 µM [inhibitor, partial curve, poor fit]"}
{"smiles": "O=C(CNC(=O)c1ccccc1)N/N=C/C=C/c1ccccc1", "Potency": "inactive"}
{"smiles": "Cc1cnc(NC(=O)Cc2ccc(S(=O)(=O)N3CCOCC3)s2)s1", "Potency": "inconclusive: 14.1 µM [inhibitor, partial curve, poor fit]"}
{"smiles": "CC(=O)c1ccc(NC(=O)Cn2c(=O)c3cccn3c3ccccc32)cc1", "Potency": "inconclusive: 50.1 µM [inhibitor, partial curve]"}
{"smiles": "O=C(O)c1ccc2noc(-c3ccccc3)c2c1", "Potency": "inconclusive: 25.1 µM [inhibitor, single point]"}
{"smiles": "O=C(Cc1ccccc1)NC1(O)C(=O)c2ccccc2C1=O", "Potency": "inconclusive: 89.1 µM [inhibitor, single point]"}
{"smiles": "CC(NC(=O)CCC(=O)c1cccs1)c1ccccc1", "note": "(stereo not drawn)", "Potency": "inconclusive: 35.5 µM [inhibitor, partial curve, poor fit]"}
{"smiles": "O=C(COC(=O)Cc1ccc(Cl)cc1Cl)Nc1ccc(OC(F)F)cc1", "Potency": "inconclusive: 100 µM [inhibitor, partial curve, poor fit]"}
{"smiles": "Oc1ccc(N=Cc2ccc(O)c(O)c2)cc1", "Potency": "active: 3.16 µM"}
{"smiles": "Brc1ccc(OCc2nc3ccccc3[nH]2)cc1", "Potency": "inconclusive: 39.8 µM [inhibitor, partial curve, poor fit]"}
{"smiles": "O=C(NC1CCN(c2ncccn2)CC1)c1ccccc1Cl", "Potency": "inconclusive: 39.8 µM [inhibitor, partial curve, poor fit]"}
{"smiles": "COc1ccccc1C(=O)NC1(C(F)(F)F)C(=O)Nc2c1c(=O)[nH]c(=O)n2-c1ccccc1", "note": "(stereo not drawn)", "Potency": "inactive"}
{"smiles": "Cc1oc2ncn(C)c(=O)c2c1C(=O)N1CCN(c2ccccc2)CC1", "Potency": "inconclusive: 100 µM [inhibitor, partial curve, poor fit]"}
{"smiles": "Cc1ccc(C)c(OCCn2cc(C(=O)c3ccco3)c3ccccc32)c1", "Potency": "inactive"}
{"smiles": "COc1ccc(S(=O)(=O)N2CCOC23CCN(S(=O)(=O)c2cccs2)CC3)cc1", "Potency": "inconclusive: 79.4 µM [inhibitor, partial curve, poor fit]"}
{"smiles": "CN1C(=O)CC(c2ccccc2)CC1=O", "Potency": "inactive"}
{"smiles": "COc1cnc(-c2ccccn2)nc1N(C)C", "Potency": "inactive"}
{"smiles": "Nc1c(C(=O)OCC2CCCO2)c2nc3ccccc3nc2n1-c1ccc2c(c1)OCCO2", "note": "(stereo not drawn)", "Potency": "inconclusive: 28.2 µM [inhibitor, single point]"}
{"smiles": "O=C(O)c1ccc2c(c1)[C@@H]1C=CC[C@@H]1[C@H](c1ccccn1)N2", "Potency": "active: 6.31 µM"}
{"smiles": "CC(SCc1ccccc1)C(=O)N/N=C/c1ccc(OCC(=O)NCc2ccco2)cc1", "note": "(stereo not drawn)", "Potency": "inconclusive: 31.6 µM [inhibitor, partial curve, poor fit]"}
{"smiles": "O=[N+]([O-])c1cccc(S(=O)(=O)Nc2cccc(-c3ccc(N4CCCC4)nn3)c2)c1", "Potency": "inconclusive: 39.8 µM [inhibitor, partial curve, poor fit]"}
{"smiles": "CCOC(=O)c1cnc(NCc2ccccc2OC)c2ccccc12", "Potency": "inconclusive: 100 µM [inhibitor, partial curve, poor fit]"}
{"smiles": "COc1ccc(/C=C/C(=O)Nc2sc3c(c2C(N)=O)CCCC3)cc1", "Potency": "inconclusive: 50.1 µM [inhibitor, partial curve]"}
{"smiles": "CCOC(=O)C1CCC(CN(Cc2ccc(Cl)cc2)S(=O)(=O)c2ccc(F)c(C(=O)Nc3cccc(F)c3)c2)CC1", "note": "(stereo not drawn)", "Potency": "inactive"}
{"smiles": "Cc1cc(C)cc(OCCCOc2cccc3cccnc23)c1", "Potency": "inconclusive: 70.8 µM [inhibitor, partial curve, poor fit]"}
{"smiles": "CCOc1ccc2oc(C(=O)Nc3ccc(C)cn3)c(C)c2c1", "Potency": "inconclusive: 20 µM [inhibitor, full curve, poor fit]"}
{"smiles": "O=S(=O)(O)c1ccc(N=NNc2ccc(Br)cc2)cc1", "Potency": "inactive"}
{"smiles": "CC(=O)c1ccc(OCC(=O)c2ccc(-c3ccccc3)cc2)cc1", "Potency": "inconclusive: 28.2 µM [inhibitor, partial curve, poor fit]"}
{"smiles": "COC(=O)c1cc2ccccc2c(-c2c(O)ccc3ccccc23)c1O", "Potency": "inactive"}
{"smiles": "COc1ccc(CNC(=O)C2CCCN(c3nccc(C)n3)C2)cc1", "note": "(stereo not drawn)", "Potency": "inactive"}
{"smiles": "CCCCNc1c(-c2cccc(-c3cc(C(C)=O)cs3)c2)nc2ccc(C)cn12", "Potency": "inconclusive: 79.4 µM [inhibitor, partial curve, poor fit]"}
{"smiles": "CCCCSc1nc(C)[nH]c1[N+](=O)[O-]", "Potency": "inconclusive: 3.55 µM [inhibitor, partial curve, poor fit]"}
{"smiles": "Cc1sc2nc3ccc(N4CCCC4)nn3c(=O)c2c1C", "Potency": "inconclusive: 50.1 µM [inhibitor, partial curve, poor fit]"}
{"smiles": "O=C(O)c1c2c(nc3ccc(Cl)cc13)CCC2", "Potency": "inconclusive: 89.1 µM [inhibitor, single point]"}
{"smiles": "Cc1cccc(-c2nnn3c2nc(NCCc2ccc(S(N)(=O)=O)cc2)c2cc(Cl)ccc23)c1", "Potency": "inactive"}
{"smiles": "O=C(/C=C/c1ccco1)NCC(=O)N/N=C/c1ccc([N+](=O)[O-])cc1", "Potency": "active: 44.7 µM"}
{"smiles": "CCN(CC)c1ccc(N=Cc2ccc([N+](=O)[O-])o2)cc1", "Potency": "inconclusive: 28.2 µM [inhibitor, partial curve, poor fit]"}
{"smiles": "CC(C)CC1C(=O)N(Cc2cn(CCC3OCCO3)nn2)CCS(=O)(=O)N1Cc1ccc(-c2ccc(F)nc2)cc1", "note": "(stereo not drawn)", "Potency": "inconclusive: 28.2 µM [inhibitor, partial curve, poor fit]"}
